The values that follow come from PMC6919601, “Identification of Plasmodium dipeptidyl aminopeptidase allosteric inhibitors by high throughput screening” (PLoS ONE, 2019).

Screen size: about 110,000 compounds; about 230 (0.21%) showed an effect of 50% or more. The list shows a part of the results.
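Also: 30 min substrate incubation versus DMSO and 10 µM JCP410 controls.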

Sequence of DPAP1 (Q8IIJ9 whole entry, looked up): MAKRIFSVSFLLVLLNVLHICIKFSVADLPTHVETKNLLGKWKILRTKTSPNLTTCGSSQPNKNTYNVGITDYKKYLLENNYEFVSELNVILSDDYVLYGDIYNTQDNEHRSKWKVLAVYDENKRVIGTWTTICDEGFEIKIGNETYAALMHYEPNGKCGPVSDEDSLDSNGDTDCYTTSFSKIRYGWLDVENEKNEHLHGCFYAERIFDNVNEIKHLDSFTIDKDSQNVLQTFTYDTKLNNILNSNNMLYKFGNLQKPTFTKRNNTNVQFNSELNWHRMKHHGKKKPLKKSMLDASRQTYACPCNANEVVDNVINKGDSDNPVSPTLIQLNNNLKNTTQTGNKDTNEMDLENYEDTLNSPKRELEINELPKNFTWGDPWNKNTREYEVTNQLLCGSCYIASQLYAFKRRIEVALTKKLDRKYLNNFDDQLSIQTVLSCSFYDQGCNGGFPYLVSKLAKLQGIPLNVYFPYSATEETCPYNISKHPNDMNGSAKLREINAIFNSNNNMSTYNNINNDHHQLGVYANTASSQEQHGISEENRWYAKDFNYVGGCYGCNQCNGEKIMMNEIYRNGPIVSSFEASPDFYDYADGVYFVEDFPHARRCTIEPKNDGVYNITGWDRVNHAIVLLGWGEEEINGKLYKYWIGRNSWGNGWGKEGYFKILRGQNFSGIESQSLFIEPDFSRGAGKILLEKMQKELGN

This experiment concerns the target DPAP1 (Plasmodium falciparum, UniProt Q8IIJ9). Description: primary screen, percent inhibition; read by cleavage of a fluorogenic dipeptide substrate; higher = more effect of the substance. The arrangement: species or system P. falciparum D10 trophozoite lysates; single well.
`CC(CNC(=O)c1cc(-c2ccco2)[nH]n1)c1ccccc1` (stereo not drawn): the “% Inhibition @ 10 uM” value is given as -0.177%.

Consider `CN(C)CCCN1CC(c2ccccc2)CC1=O` (stereo not drawn), for which the “% Inhibition @ 10 uM” value is on record as -2.62%. Consider `CCOC(=O)C1CCN(S(=O)(=O)c2ccc(NC(C)=O)cc2)CC1`, for which the “% Inhibition @ 10 uM” value is 2.58%. The same measure for `COc1ccc(OC)c(CCNCc2c(C(=O)O)c(C)n(Cc3ccccc3)c2C)c1`: -5.49%. The same measure for `CNS(=O)(=O)c1cn(CC(=O)N2CCC(N3CCCCC3)CC2)cc1S(=O)(=O)NC`: -0.341%; for `Cc1c2cnn(CC(=O)N3CCC(Cc4ccccc4)CC3)c(=O)c2c(C)n1Cc1ccccc1`: 1.22%. The same measure for `Cc1ccc(CNC(=O)CSCc2nc(-c3cccs3)oc2C)cc1`: -1.05%. With `O=S(=O)(Nc1nc(-c2ccccc2)cs1)c1ccc(Cl)cc1`, the “% Inhibition @ 10 uM” value was 1.21%. The same measure for `CSc1nc(Oc2cc(C)cc(C)c2)cc(-n2ncc(C#N)c2N)n1`: 5.9%; for `Clc1cccc(N2CCN(Cc3ccccc3Br)CC2)c1`: -5.41%. The same measure for `Cc1cnn(-c2nc(-c3ccc(F)cc3)cc(C(F)(F)F)n2)c1`: -3.12%; for `CC(C(=O)NCCc1ccc(Cl)cc1)n1sc2ccccc2c1=O` (stereo not drawn): -9.85%. The same measure for `COc1ccc2c(Sc3ccc(C)cc3)c(C(=O)N3CCC4(CC3)OCCO4)[nH]c2c1`: 1.91%. Turning to `CC1(C)CC(=O)C(/C=N/CCc2c[nH]c3ccccc23)=C(O)C1`, the “% Inhibition @ 10 uM” value was 1.96%. The same measure for `CC1CCN(C(=O)COc2ccc(-c3nn(C)c(=O)c4ccccc34)cc2)CC1`: 3.63%. The same measure for `CC(=O)N1CCn2c3ccc(C)cc3c3cccc1c32`: -5.98%. With `Cc1cccc(C(=O)c2cn[nH]c2-c2ccc(C)cc2O)c1`, the “% Inhibition @ 10 uM” value is reported as 5.9%. The same measure for `CCOc1ccc(-n2nnc(C(=O)OC)c2C(=O)OC)cc1`: -3.39%. The same measure for `COc1ccc(N2CCN(Cc3ccc(NC(C)=O)cc3)CC2)cc1`: -1.07%.

As to `CC(NC(=O)c1cnccn1)c1ccccc1` (stereo not drawn), the “% Inhibition @ 10 uM” value was -15.4%.

As for `[O-][n+]1cccc2c1-c1ccccc1/C2=N/O`, the “% Inhibition @ 10 uM” value is 3.06%.

For the compound `CC(C)C/C(=N\O)c1cn(C)c2ccccc12`, the “% Inhibition @ 10 uM” value is recorded as -6.25%. Take `O=C1c2ccccc2C(=O)N1CCSc1nc2ccccc2o1`: the “% Inhibition @ 10 uM” value came out at 1.03%. `CCOC(=O)N1CCN(C(=O)CSCc2nc(-c3ccc(OC)c(OC)c3)oc2C)CC1`: the “% Inhibition @ 10 uM” value is 2.37%. The same measure for `Cc1ccc(-n2nc(C)c(/C=N/c3ccc(C(=O)N4CCOCC4)cc3)c2O)cc1`: -0.366%; for `Nc1cc(-c2ccccc2)ccc1C(=O)O`: 2.6%. The same measure for `COc1ccc(-c2cc(CCCC(=O)NCCc3ccc(Cl)cc3)no2)cc1`: -1.3%; for `C=Cc1ccc(Cn2c(C)c(CNCc3cc(OC)c(OC)c(OC)c3)c(C(=O)O)c2C)cc1`: 4.53%. The same measure for `COC(=O)C1=C(C)N=c2s/c(=C\c3ccc(Cl)cc3)c(=O)n2C1c1ccccc1Cl` (stereo not drawn): 2.78%; for `CCOCCc1nnc(NC(=O)C(=O)c2c[nH]c3ccccc23)s1`: -4.68%; for `CC(C)(C)c1cc(N)n2nc(C(C)(C)C)cc2n1`: -1.69%.

With `Cc1ccc(C[C@H](NC(=O)OCc2ccccc2)C(=O)NCC#N)cc1`, the “% Inhibition @ 10 uM” value was -6.46%. The same measure for `COCCC/N=C/c1c(C)nn(-c2ccc(Br)c(C)c2)c1O`: 1.37%. The same measure for `C=CCN1C(=O)N/C(=C/c2ccccc2OCc2ccc(F)cc2)C1=O`: 2.6%; for `COc1ccc(CN2CCN(c3cccc(C(F)(F)F)c3)CC2)cc1C`: -7.6%.

Consider `CC(C)N(Cc1nc(-c2ccc(Cl)cc2)no1)C(=O)NC1CCCCC1`, for which the “% Inhibition @ 10 uM” value is given as 1.67%. The same measure for `Cc1oc(CN2CCOCC2)cc1C(=O)O`: 5.1%. The same measure for `CCOC(=O)N1CCN(C(=O)COc2ccc3c(c2)C(=O)CC2(CCN(C(C)=O)CC2)O3)CC1`: 2.01%; for `Cc1ccc(N2CC(C(=O)Nc3ccccc3C(=O)NC3CCCCC3)CC2=O)cc1C` (stereo not drawn): 3.49%; for `Cc1cc(C(=O)O)sc1C`: -0.256%.

`CCCOc1ccc(C2C3=C(O)CCCC3=NC(C)=C2C(=O)N2CCOCC2)cc1OC` (stereo not drawn): the “% Inhibition @ 10 uM” value is given as 4.99%. In the case of `Cc1ccc(C(=O)N/C(=C\c2cccs2)C(=O)N2CCCCC2)cc1C`, the “% Inhibition @ 10 uM” value was -0.968%. The same measure for `COc1cc(/C=C2\Sc3ccccc3C2=O)ccc1OC(C)=O`: 0.634%; for `Cc1cc(C)c2c(n1)sc1c(O)nnnc12`: 5.3%; for `C=CCn1c(-c2ccccc2Cl)nc2ccccc21`: 2.73%. The same measure for `CCC(Sc1nc(N)cc(O)n1)C(=O)Nc1ccc2ccccc2c1` (stereo not drawn): -2.87%; for `c1ccc(Oc2cccc(CN3CCCCCC3)c2)cc1`: 0.605%.

For `CCC(Sc1nc2cccnc2[nH]1)C(=O)NCCOC` (stereo not drawn), the “% Inhibition @ 10 uM” value was 0.693%. The same measure for `COc1ccc(S(=O)(=O)Nc2ccc(F)c(F)c2)cc1`: 0.162%; for `CCOC(=O)c1sc2ncc([N+](=O)[O-])cc2c1N`: 1.9%; for `O=C(O)CC1C(=O)NCCN1Cc1ccc(F)cc1Cl` (stereo not drawn): -1.11%.
